Data taken from paper PMC4336329 (PLoS ONE, 2015).
The whole screen tested about 310,000 compounds, of which about 2,200 (0.71%) showed an effect of 50% or more. The effect is printed as a negative number. The list shows a part of the results.

molecular target: human ether-à-go-go-related gene (hERG) potassium channel (human, UniProt Q12809); assay: primary screen, population patch clamp on CHO cells stably expressing hERG
Sequence (Q12809 whole entry, looked up): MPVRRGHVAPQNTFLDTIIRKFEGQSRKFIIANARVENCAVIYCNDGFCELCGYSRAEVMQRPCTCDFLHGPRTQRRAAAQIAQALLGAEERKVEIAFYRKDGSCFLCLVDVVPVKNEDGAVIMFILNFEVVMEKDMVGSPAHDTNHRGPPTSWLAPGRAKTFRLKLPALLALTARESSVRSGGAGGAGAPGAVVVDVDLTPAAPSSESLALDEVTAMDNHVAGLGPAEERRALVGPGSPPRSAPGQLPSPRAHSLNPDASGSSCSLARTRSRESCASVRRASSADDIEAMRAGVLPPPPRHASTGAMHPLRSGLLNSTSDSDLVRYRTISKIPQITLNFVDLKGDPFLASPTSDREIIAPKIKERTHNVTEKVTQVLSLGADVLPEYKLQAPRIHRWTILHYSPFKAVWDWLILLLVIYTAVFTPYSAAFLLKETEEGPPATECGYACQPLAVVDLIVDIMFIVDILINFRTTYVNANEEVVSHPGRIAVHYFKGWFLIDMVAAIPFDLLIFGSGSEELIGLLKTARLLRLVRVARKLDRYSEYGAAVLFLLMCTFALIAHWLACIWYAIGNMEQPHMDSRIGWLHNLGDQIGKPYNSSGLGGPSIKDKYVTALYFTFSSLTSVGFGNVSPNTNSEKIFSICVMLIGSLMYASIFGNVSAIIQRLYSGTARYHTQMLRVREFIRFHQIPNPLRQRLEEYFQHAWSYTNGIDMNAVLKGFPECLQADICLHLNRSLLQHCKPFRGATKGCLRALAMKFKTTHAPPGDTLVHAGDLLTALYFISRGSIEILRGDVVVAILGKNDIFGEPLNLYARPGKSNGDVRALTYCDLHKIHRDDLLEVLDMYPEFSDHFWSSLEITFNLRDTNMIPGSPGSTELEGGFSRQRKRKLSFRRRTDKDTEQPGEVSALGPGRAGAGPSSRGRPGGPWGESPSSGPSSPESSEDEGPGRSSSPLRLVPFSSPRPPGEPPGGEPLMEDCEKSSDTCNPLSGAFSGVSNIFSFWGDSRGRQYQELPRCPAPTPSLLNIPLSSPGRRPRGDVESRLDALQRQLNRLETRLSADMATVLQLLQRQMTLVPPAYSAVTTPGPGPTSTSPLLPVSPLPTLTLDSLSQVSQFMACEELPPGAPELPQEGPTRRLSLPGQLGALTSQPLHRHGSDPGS

SMILES	hERG current change (%, negative = inhibition) at 1uM [%]
NC(=O)CSc1oc(-c2ccc(F)cc2)nc1S(=O)(=O)c1ccccc1	5.93
CCSc1nnc(NC(=O)c2c(-c3ccccc3Cl)noc2C)s1	10.7
Cc1cccc(NC(=O)CSCC(=O)N(CCC(C)C)c2c(N)n(Cc3ccccc3)c(=O)[nH]c2=O)c1	5.72
Fc1ccc(N2CCN(Cc3cc4c(cc3Br)OCO4)CC2)cc1	9.86
CCOC(=O)N1CCN(C(=O)C2CCC(=O)N(CCCc3ccccc3)C2)CC1 (stereo not shown)	9.96
CCN(CC)CCNCc1ccc(OCc2ccc(Cl)nc2)c(OC)c1	3.39
CCC(=O)Nc1cc(SCCO)cc([N+](=O)[O-])c1	12
CC(C)N1CC(COc2ccc(Cl)cc2Cl)OC1=O (stereo not shown)	-13
CC(NS(=O)(=O)c1ccc2[nH]c(=O)c(=O)[nH]c2c1)C(=O)O (stereo not shown)	3.87
COC(=O)c1ccccc1NC(=O)N1c2ccccc2CC1C (stereo not shown)	-0.865
CC1CN(C(=O)c2cc(-c3ccc(Cl)s3)nc3ccccc23)CC(C)O1 (stereo not shown)	11.5
CCCOC(=O)c1ccc(Oc2cn[nH]c2-c2ccc(O)cc2O)cc1	7.56
COc1ccc(/C=C/C(=O)c2cc(Br)ccc(=O)c2O)cc1	17.6
CCN(CC)CCCN=Cc1c(O)n(Cc2ccc(F)cc2)c(=O)[nH]c1=O	-5.47
COc1cc2c(cc1OC)CN(C(=O)CCOc1ccccc1C)CC2	17.1
COC(=O)c1cc(OC)c(OC)cc1NC(=S)N1CCC(C(N)=O)CC1	9.37
CC1CCCCN1C(=O)c1ccc(C(=O)N2CCCCC2C)cc1 (stereo not shown)	6.64
Cn1c(N)c(C(=O)COC(=O)c2cccnc2Cl)c(=O)n(C)c1=O	5.34
COc1ccc(OCC(=O)NC(=S)Nc2ccc3c4c(cccc24)CC3)cc1	9.48
Cc1[nH]c(=S)[nH]c(=O)c1Cc1ccccc1	13.2
COc1cc([N+](=O)[O-])cc(/C=N/NC(=O)c2cc(C)nc3ccccc23)c1O	10.9
Cc1ccccc1-c1nc(CN2CCC(C(=O)N3CCC(C(N)=O)CC3)CC2)c(C)o1	9.1
CCOc1ccc2c(=O)c(Oc3ccccc3)c(C)oc2c1	2.44
Cn1nc([N+](=O)[O-])nc1Sc1cccc2cccnc12	3.74
Cc1ccc(NC(=O)NCc2ccccn2)c(C)c1	14
